Experimental findings from PMC4336329 (PLoS ONE, 2015) are described below.

In all, about 310,000 compounds went through this assay and about 14,000 (4.5%) showed an effect of 50% or more. Effects have a minus sign here. The list shows a part of the results. Where a SMILES comes first, the peptide text is derived from it.
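Also: peak tail current of the secondary pulse compared with the same well before compound.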

For the assay, the target named is human ether-à-go-go-related gene (hERG) potassium channel (human, UniProt Q12809). The assay is described as follows: primary screen, population patch clamp on CHO cells stably expressing hERG.
human ether-à-go-go-related gene (hERG) potassium channel, sequence (Q12809 whole entry, looked up): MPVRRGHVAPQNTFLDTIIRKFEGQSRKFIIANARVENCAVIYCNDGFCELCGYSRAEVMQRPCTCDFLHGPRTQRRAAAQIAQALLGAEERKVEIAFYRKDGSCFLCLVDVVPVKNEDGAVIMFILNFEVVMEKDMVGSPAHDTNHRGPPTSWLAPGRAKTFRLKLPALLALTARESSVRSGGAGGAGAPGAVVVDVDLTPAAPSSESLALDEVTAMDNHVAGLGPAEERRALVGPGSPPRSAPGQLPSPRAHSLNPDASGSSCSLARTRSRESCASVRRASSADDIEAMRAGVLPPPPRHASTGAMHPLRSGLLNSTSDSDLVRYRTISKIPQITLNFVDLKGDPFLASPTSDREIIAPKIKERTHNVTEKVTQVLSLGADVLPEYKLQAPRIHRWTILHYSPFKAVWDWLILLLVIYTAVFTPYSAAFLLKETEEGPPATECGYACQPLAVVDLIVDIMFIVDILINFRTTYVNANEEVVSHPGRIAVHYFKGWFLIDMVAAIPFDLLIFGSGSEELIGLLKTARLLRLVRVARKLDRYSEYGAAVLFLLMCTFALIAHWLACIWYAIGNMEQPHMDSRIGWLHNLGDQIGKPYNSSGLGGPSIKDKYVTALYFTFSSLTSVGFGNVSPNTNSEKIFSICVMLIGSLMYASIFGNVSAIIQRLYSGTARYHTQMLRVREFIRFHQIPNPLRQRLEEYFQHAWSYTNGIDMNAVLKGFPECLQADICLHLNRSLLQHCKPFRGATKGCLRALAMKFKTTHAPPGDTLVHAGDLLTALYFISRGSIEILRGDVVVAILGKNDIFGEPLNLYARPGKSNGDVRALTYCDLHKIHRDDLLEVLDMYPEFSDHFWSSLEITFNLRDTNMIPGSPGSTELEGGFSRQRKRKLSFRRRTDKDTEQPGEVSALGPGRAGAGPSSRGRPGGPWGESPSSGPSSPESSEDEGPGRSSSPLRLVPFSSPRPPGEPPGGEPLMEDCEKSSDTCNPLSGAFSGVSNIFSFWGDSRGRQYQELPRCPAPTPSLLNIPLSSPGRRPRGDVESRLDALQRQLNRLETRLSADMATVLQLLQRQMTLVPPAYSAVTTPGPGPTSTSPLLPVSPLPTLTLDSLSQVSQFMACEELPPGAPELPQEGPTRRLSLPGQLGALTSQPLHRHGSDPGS
Consider `O=S(=O)(Nc1ncn[nH]1)c1ccc2ccccc2c1`, for which the “hERG current change (%, negative = inhibition) at 10uM” value was 5.61%. Next, `COCCNC(=O)CSc1ccccc1C(=O)NCC1CCCCC1`: 17.4%; `O=C(COc1ccccc1)Nc1nnc(S(=O)(=O)N2CCCC2)s1`: 8.58%; `N#C/C(=C\c1ccc(Cl)cc1)c1nc2ccccc2o1`: 1.26%. The result for `CSCCC(NC(=O)c1ccccc1Cl)C(=O)N1CCN(c2ccccn2)CC1` (stereo not shown) reads -35.2%; that for `c1ccc(CN2OCC3Cn4c(nc5ccccc54)C32)cc1` (stereo not shown), 22.5%; that for `Cc1nc(NC(=O)/C=C/c2ccc(F)cc2)sc1C(=O)N(C)C`, 16.5%. Next, `O=C1NC(=O)/C(=C\c2ccc(N3CCOCC3)o2)N1`: 6.82%; `O=C(NC1CCCC1)c1cc(-c2ccccc2)nc2ccccc12`: 5.81%; `Cc1ccc(NC(=O)Cn2cc(C=O)c3ccccc32)cc1`: 17.5%. For the compound `Cc1ccc2nc(SCc3nc4c(cnn4-c4ccccc4)c(=O)[nH]3)[nH]c2c1`, the “hERG current change (%, negative = inhibition) at 10uM” value was determined as 15.3%.

As for `Cc1cc(/C(N)=N/OC(=O)Nc2ccccc2)no1`, the “hERG current change (%, negative = inhibition) at 10uM” value is -8.52%. In the case of `Cc1ccccc1OCC(=O)Nc1nnc(C2CCCC2)s1`, the “hERG current change (%, negative = inhibition) at 10uM” value is 19.8%. The result for `CC(=O)NC(Cc1ccccc1)C(=O)NC(Cc1ccccc1)C(=O)O` (stereo not drawn) (Ac-Phe-Phe-OH; configuration not given here) reads 10.4%; that for `CCS(=O)(=O)c1ccc2oc(SCC(=O)c3c(N)n(C4CC4)c(=O)[nH]c3=O)nc2c1`, 23.5%. The result for `COc1cccc(/C=N/NC(=O)C(C)n2nnc3ccccc32)c1` (stereo not shown) reads -1.1%; that for `O=C(NC(=S)Nc1nc(-c2ccc(Cl)cc2)cs1)c1cccs1`, 18.7%. `O=C(NC(=S)Nc1ccccc1N1CCOCC1)c1sc2ccccc2c1Cl`: the “hERG current change (%, negative = inhibition) at 10uM” value is on record as 0.21%. As to `C[C@]12C=CC(=O)C=C1CC[C@@H]1[C@@H]2[C@@H](O)C[C@@]2(C)[C@H]1CC[C@]2(O)C(=O)COC(=O)CCC(=O)NCCc1ccc(O)cc1`, the “hERG current change (%, negative = inhibition) at 10uM” value is on record as 12.8%. The result for `COc1ccc(NC(=O)C(Cc2ccccc2)n2cccc2)c(OC)c1` (stereo not shown) reads -13.7%; that for `CCOC(=O)N1CCN(C(=O)C2CC(=O)N(c3ccc(OC)cc3)C2c2ccc(OC)cc2)CC1` (stereo not shown), -13.2%; that for `O=C(NCCN1CCOCC1)c1cc(-c2cccc(O)c2)on1`, 6.99%. With `Cc1ccc2c(c1)C1C=CCC1C(C(=O)NCCCN1CCOCC1)N2` (stereo not shown), the “hERG current change (%, negative = inhibition) at 10uM” value is listed as -3.91%.

In the case of `CC(NC(=O)Cn1nc(C(=O)O)c2ccccc2c1=O)c1ccccc1` (stereo not shown), the “hERG current change (%, negative = inhibition) at 10uM” value is -8.74%. Next, `CCOc1ccc(CN(C)C(=O)CCNC(=O)c2ccco2)cc1`: 1.35%; `O=C(Nc1ncc(C(F)(F)F)cc1Cl)c1ccc(S(=O)(=O)N2CCOCC2)cc1`: -13.4%. Next, `CC(C(=O)N1CCc2ccccc21)N(C)CC(=O)Nc1ccc(F)cc1` (stereo not shown): -47.9%; `Cc1nc2cc3c(cc2c(C)c1C(=O)OC(C)C)OCO3.Cl`: -0.944%; `O=C(CCN1C(=O)/C(=C\c2cccc(Br)c2)SC1=S)NCCCN1CCOCC1`: -63.4%. Consider `CCC(Sc1nc2ncccc2[nH]1)C(=O)NCCc1ccccc1` (stereo not shown), for which the “hERG current change (%, negative = inhibition) at 10uM” value is reported as 4.35%.

Regarding `CC(=O)c1cccc(NC(=O)c2cccc3ccccc23)c1`, the “hERG current change (%, negative = inhibition) at 10uM” value is -17.9%. `COc1ccc(NS(=O)(=O)c2ccc(OCC(=O)N3CCOCC3)cc2)cc1Cl`: the “hERG current change (%, negative = inhibition) at 10uM” value came to 8.46%. Regarding `CCOc1ccc(/C=N/NC(=O)CNC(=O)c2ccc(S(=O)(=O)N3CCOCC3)cc2)cc1`, the “hERG current change (%, negative = inhibition) at 10uM” value came to 11.7%.

With `O=C(NCc1ccco1)c1ccc2nc3sc4c(c3c(=O)n2c1)CCCC4`, the “hERG current change (%, negative = inhibition) at 10uM” value was -24.1%. On to `COc1ccc(C2=NN(CCC(=O)NCc3cccs3)C(=O)CC2)cc1`, for which the “hERG current change (%, negative = inhibition) at 10uM” value is listed as -27.1%.

`COc1ccccc1N1CCN(C(=O)Cn2ncc3c([nH]c4ccccc43)c2=O)CC1`: the “hERG current change (%, negative = inhibition) at 10uM” value is on record as 4.74%. On to `CC1=C(C(=O)N(C)C)C(c2ccc(C)s2)NC(=S)N1` (stereo not shown), for which the “hERG current change (%, negative = inhibition) at 10uM” value is on record as 12.3%. The result for `COC(=O)N1CCN(c2ccc(C(C)=O)cc2)CC1` reads -17%. In the case of `CCOc1ccccc1C(=O)Nc1ccc(S(=O)(=O)N2CCN(C)CC2)cc1`, the “hERG current change (%, negative = inhibition) at 10uM” value turned out to be 1.7%. The result for `O=c1c2ccccc2nc2n1C(CSCc1ccc(Cl)cc1Cl)CS2` (stereo not shown) reads -21.8%; that for `O=S(=O)(Nc1cc(S(=O)(=O)N2CCOCC2)ccc1NCC1CCCO1)c1ccc(F)cc1` (stereo not shown), -3.88%. The result for `COc1ccc(N2CCN(CC(=O)Nc3ccc(-n4cnnn4)cc3)CC2)cc1` reads 2.26%; that for `Cc1ccccc1OCCNc1ccc(C(F)(F)F)cc1[N+](=O)[O-]`, 13.4%; that for `O=C(NNC(=O)c1cc2ccccc2cc1O)c1cccs1`, 7.2%. Turning to `CCN(Cc1nc(-c2ccc(OC)c(OC)c2)no1)C(=O)c1ccc2c(c1)OCO2`, the “hERG current change (%, negative = inhibition) at 10uM” value was 5.32%. The result for `CC(=O)Nc1ccc(S(=O)(=O)NCC(=O)NNC(=O)c2csc(N3CCOCC3)n2)cc1` reads -0.267%. As to `O=S(=O)(c1cccs1)N1CN(Cc2ccc(Cl)cc2)c2nc3ccccc3nc21`, the “hERG current change (%, negative = inhibition) at 10uM” value was determined as 3.75%.

Take `Cc1nn(C(=O)c2ccco2)c(C)c1Br`: the “hERG current change (%, negative = inhibition) at 10uM” value worked out at 12.3%. In the case of `COc1ccc(CN(C)C(=O)c2ccc(NS(=O)(=O)c3ccc(C)c([N+](=O)[O-])c3)cc2)c(OC)c1OC`, the “hERG current change (%, negative = inhibition) at 10uM” value was -10.1%. With `COC(=O)C1=C(c2ccc(Cl)c(C(F)(F)F)c2)C[C@@H]2CC[C@H]1N2C(=O)NCCNC(C)=O`, the “hERG current change (%, negative = inhibition) at 10uM” value worked out at 3.41%. With `COc1ccc(Cl)cc1NC(=O)C(OC)c1ccccc1` (stereo not shown), the “hERG current change (%, negative = inhibition) at 10uM” value is reported as -11.2%. Regarding `CC1Cc2ccccc2N1C(=O)Cn1c(=O)cc(O)c2ccccc21` (stereo not shown), the “hERG current change (%, negative = inhibition) at 10uM” value is given as 12.9%.

`CCc1cccc(CC)c1NC(=O)COC(=O)c1cccc(-c2ccc(OC(C)=O)cc2)c1`: the “hERG current change (%, negative = inhibition) at 10uM” value is reported as -0.529%. Regarding `COc1cc(/C=C2/C(=O)ON=C2c2ccccc2)ccc1O`, the “hERG current change (%, negative = inhibition) at 10uM” value is reported as -11.9%. On to `O=C(Cn1cnc2cc([N+](=O)[O-])ccc2c1=O)N(Cc1ccccc1)C1CCS(=O)(=O)C1` (stereo not shown), for which the “hERG current change (%, negative = inhibition) at 10uM” value is -19%. As to `NS(=O)(=O)c1ccc(NC(=O)CSc2n[nH]c(=O)n2C2CC2)cc1`, the “hERG current change (%, negative = inhibition) at 10uM” value is listed as 5.07%. Next, `CCN(CC)S(=O)(=O)c1ccc(S(=O)(=O)N2CCCC(C(=O)NC3CC3)C2)cc1` (stereo not shown): 1.97%; `COc1ccc(CCNC(=O)c2ccc(SC)cc2OC)cc1`: -26.8%. For the compound `CC1CCCCN1S(=O)(=O)c1csc(C(N)=O)c1` (stereo not shown), the “hERG current change (%, negative = inhibition) at 10uM” value was -1.25%. As to `Cc1nc2ccc(F)cc2cc1C(=O)NCc1ccco1`, the “hERG current change (%, negative = inhibition) at 10uM” value is -6.4%. The result for `C/C(=N\NC(=O)c1c(Br)cnn1C)c1ccc(NC(=O)c2ccc(F)cc2)cc1` reads 16.1%; that for `COc1cccc(C2c3c(oc4ccccc4c3=O)C(=O)N2Cc2ccco2)c1` (stereo not shown), 5.84%; that for `CC(Sc1nc2ccc(Br)cc2[nH]1)C(=O)O` (stereo not shown), -12%. As for `O=C(NCc1ccco1)C(c1ccccc1F)N(Cc1cccnc1)C(=O)Cn1nnc2ccccc21` (stereo not shown), the “hERG current change (%, negative = inhibition) at 10uM” value is listed as -32%.

As for `COc1cccc(NC(=O)Cn2c(SCC(=O)N3CCOCC3)nc3ccccc32)c1`, the “hERG current change (%, negative = inhibition) at 10uM” value is -4.71%.

As for `COc1cc([N+](=O)[O-])c(OC)cc1SCc1n[nH]c(=S)n1-c1ccc(C)cc1`, the “hERG current change (%, negative = inhibition) at 10uM” value is on record as 2.28%. `CC(=O)c1ccc(NC(=O)Nc2ccc(NS(=O)(=O)c3ccc(C)cc3)cc2)cc1`: the “hERG current change (%, negative = inhibition) at 10uM” value stood at 13.6%. Next, `Cl.c1ccc(-c2nnc(CN3CCCCC3)o2)cc1`: 13.8%; `CCCCn1c(SCC2CCCCO2)nc2cc(S(N)(=O)=O)ccc21` (stereo not shown): -40.8%.

For `N#CCCN(C(=O)COC(=O)CNC(=O)c1ccc(-c2ccccc2)cc1)c1ccc(F)cc1`, the “hERG current change (%, negative = inhibition) at 10uM” value worked out at 1.57%. With `CC(C)NC(C)C(=O)C12CC3CC(CC(C3)C1)C2.Cl` (stereo not shown), the “hERG current change (%, negative = inhibition) at 10uM” value is recorded as -12.4%. Take `N#Cc1nc(COc2cccc(Cl)c2)oc1NCCN1CCOCC1`: the “hERG current change (%, negative = inhibition) at 10uM” value was -44%. The result for `Cc1ccc([N+](=O)[O-])c(OCCN2CCNCC2)c1.O=C(O)C(=O)O` reads -14.6%; that for `O=C(NCCNC(=O)c1cnccn1)c1cccc(Cl)c1`, 4.53%. With `CN(Cc1nc(Cc2cccc(C(F)(F)F)c2)no1)C1CC(C)(C)NC(C)(C)C1`, the “hERG current change (%, negative = inhibition) at 10uM” value is recorded as -12.3%. `Cc1ccc(NCC(O)Cn2cnc3c2c(=O)n(C)c(=O)n3C)cc1` (stereo not shown): the “hERG current change (%, negative = inhibition) at 10uM” value is given as -36%.

With `COc1cc(/C=C/c2[nH]c(=O)[nH]c(=O)c2[N+](=O)[O-])cc(OC)c1O`, the “hERG current change (%, negative = inhibition) at 10uM” value is 7.26%. As for `O=C(NCC1CCCO1)C(c1cccs1)N(C(=O)Cn1nnc(-c2cccs2)n1)C1CCCC1` (stereo not shown), the “hERG current change (%, negative = inhibition) at 10uM” value is reported as -15.8%. In the case of `CN(C)C(=O)Cn1c(SCC(=O)NCc2ccc3c(c2)OCO3)nc2ccccc21`, the “hERG current change (%, negative = inhibition) at 10uM” value is on record as 4.11%. For the compound `Cc1ccccc1NC(=O)CS(=O)(=O)c1cn(CC(=O)N2CCOCC2)c2ccccc12`, the “hERG current change (%, negative = inhibition) at 10uM” value is recorded as 8.14%.

In the case of `COc1ccc(NC(=O)COC(=O)CCCc2c[nH]c3ccccc23)cc1OC`, the “hERG current change (%, negative = inhibition) at 10uM” value is 1.75%. Turning to `CCCCCO`, the “hERG current change (%, negative = inhibition) at 10uM” value came out at 16.7%. The result for `Cc1ccc(CNC(=O)CCS(=O)(=O)c2cccc3nsnc23)cc1` reads 8.67%; that for `CC1CCCCN1C(=O)C12CCC(C)(C(=O)C1)C2(C)C` (stereo not shown), -12.2%; that for `CCc1ccc(C(O)(c2ccccc2OC)C(CN2CCOCC2)c2ccccc2)cc1.Cl` (stereo not shown), -16.5%.
